Experimental findings from PubChem BioAssay (NCATS) are described below.

The list shows a part of the results. The main result of the screen is listed elsewhere. These columns were measured beside it and carry no call. The list favours compounds with an active or inconclusive main result. The note in brackets gives the kind of curve behind each potency; many fits are weak.

The test in a line: qHTS Assay for Lipid Storage Modulators (AID 1519). Conditions: Drosophila S3 cells, BODIPY lipid droplet/cell ratio, laser cytometry, cells loaded with oleic acid. The essentials:
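Cells seeded at 5,000 per well were treated with compounds over a concentration series and loaded with oleic acid (400 uM, as added). Lipid droplet fluorescence (488 nm excitation, 500-530 nm channel) was read by laser-scanning cytometry and normalized to 20 uM Triacsin C.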

The mark [1] stands for this setting: measured here: cell count channel max response.
The mark [2] stands for this setting: measured here: cell number channel AC50.
Setting [3] is: measured here: lipid (BODIPY) channel AC50.
Setting [4] is: measured here: lipid channel max response.
Tags tell the direction and shape of the fitted curve.

Regarding `COc1ccccc1-c1cncnc1NCc1cnc(C)cn1`, the max response reads like this: under setting [1], 32.9%; under setting [4], 39%. Besides, the AC50 (usually the concentration giving half of the maximal activity seen) is 2820 nM [rising, full curve, poor fit] under setting [2] and 2820 nM [rising, full curve, poor fit] under setting [3].
Turning to `C[C@@H]1O[C@@H](OC[C@H]2O[C@@H](Oc3c(-c4cccc(O)c4O)oc4cc(O)cc(O)c4c3=O)[C@H](O)[C@@H](O)[C@@H]2O)[C@H](O)[C@H](O)[C@H]1O`, the max response by setting is: under setting [1], -39.1%; under setting [4], -38.2%. For the same compound, the AC50 reads like this: under setting [2], 3550 nM [falling, partial curve, poor fit]; under setting [3], 158 nM [falling, full curve, poor fit].
As for `COc1ccc(Oc2ncc3nc(-c4cc(F)cc(F)c4)c(=O)n(CCC#N)c3n2)cc1`, the max response was determined as 4.49% under setting [1] and 8.61% under setting [4]. In addition, the AC50 under setting [2] was 5.62 nM [rising, full curve, poor fit] and the AC50 under setting [3] is 5.62 nM [rising, full curve, poor fit].
`O=c1c(-c2ccccc2)nc2cnc(N3CCNCC3)nc2n1-c1ccccc1`: the max response was determined as 33% under setting [1] and 38.2% under setting [4]. Moreover, the AC50 runs as follows: under setting [2], 12600 nM [rising, single point]; under setting [3], 12600 nM [rising, partial curve, poor fit].
On to `c1cc(NC2CC2)nc(-c2ccoc2)n1`, for which the max response under setting [1] is 30.9% and the max response under setting [4] came to 41.2%. The AC50 reads like this: under setting [2], 1260 nM [rising, full curve, poor fit]; under setting [3], 1580 nM [rising, full curve].
On to `COc1ccc(Oc2ncc3ncc(=O)n(C4CC4)c3n2)cc1`, for which the max response came to 17.7% under setting [1] and 25.8% under setting [4]. In addition, the AC50 under setting [2] was 2510 nM [rising, single point] and the AC50 under setting [3] was 2820 nM [rising, full curve, poor fit].
In the case of `CN1CCN(c2ncc3nc(-c4cccc(C#N)c4)c(=O)n(CCc4ccccc4)c3n2)CC1`, the max response by setting is: under setting [1], -41.4%; under setting [4], -55.1%. The AC50 runs as follows: under setting [2], 39800 nM [falling, single point]; under setting [3], 39800 nM [falling, single point].
As to `COc1cccc(Cn2c(=O)c(-c3ccc(Cl)cc3)nc3cncnc32)c1`, the max response is, setting by setting: under setting [1], 3.55%; under setting [4], 10.1%. The AC50 is 1410 nM [rising, partial curve] under setting [2] and 794 nM [rising, partial curve] under setting [3].
Turning to `COc1cccc(Cn2c(=O)c(-c3ccc(F)cc3)nc3cnc(N4CCOCC4)nc32)c1`, the max response is, setting by setting: under setting [1], 18.5%; under setting [4], 27%. Moreover, the half-maximal activity concentration (AC50) runs as follows: under setting [2], 794 nM [rising, full curve, poor fit]; under setting [3], 631 nM [rising, full curve, poor fit].
Turning to `COc1ccccc1CNc1ccnc(-c2cccc(NS(C)(=O)=O)c2)n1`, the max response worked out at 11.7% under setting [1] and 14.2% under setting [4]. The concentration at half-maximal activity (AC50) is 447 nM [rising, full curve] under setting [2] and 501 nM [rising, full curve] under setting [3].
Take `COc1ccccc1-c1nc(NCc2ccccc2)c2ccccc2n1`: the max response reads like this: under setting [1], -33.9%; under setting [4], -57.9%. For the same compound, the AC50 reads like this: under setting [2], 39800 nM [falling, single point]; under setting [3], 39800 nM [falling, single point].
For `CS(=O)(=O)Nc1cccc(-c2cncnc2Nc2ccccc2)c1`, the max response runs as follows: under setting [1], 32%; under setting [4], 36.5%. Also, the AC50 reads like this: under setting [2], 2510 nM [rising, full curve]; under setting [3], 2510 nM [rising, full curve, poor fit].
Regarding `COc1cc2c(C)c3c4c(cc(OC)c(OC)c4c2cc1OC)CCN3C`, the max response is, setting by setting: under setting [1], 64.7%; under setting [4], 72%. In addition, the AC50 runs as follows: under setting [2], 7080 nM [rising, full curve]; under setting [3], 6310 nM [rising, full curve].
For `CCNc1ncc2nc(CCc3ccccc3)c(=O)n(Cc3ccc(F)cc3)c2n1`, the max response reads like this: under setting [1], 61.2%; under setting [4], 30.6%. The AC50 is, setting by setting: under setting [2], 2820 nM [rising, partial curve, poor fit]; under setting [3], 1000 nM [rising, full curve, poor fit].
On to `CC(=O)NCCNc1nc(-c2ccc(C(=O)N(C)C)cc2)nc2ccccc12`, for which the max response runs as follows: under setting [1], 33.4%; under setting [4], 43.8%. The AC50 was 1580 nM [rising, full curve, poor fit] under setting [2] and 1260 nM [rising, full curve] under setting [3].
In the case of `CN(C)c1ncc2nc(CCc3ccccc3)c(=O)n(C[C@H]3CCCO3)c2n1`, the max response under setting [1] was 10% and the max response under setting [4] stood at 17.3%. Further, the half-maximal activity concentration (AC50) is 355 nM [rising, partial curve] under setting [2] and 112 nM [rising, full curve] under setting [3].
Take `CCc1ccccc1OC[C@@H](O)CN[C@H]1CCCc2ccccc21`: the max response runs as follows: under setting [1], -10.8%; under setting [4], -81.2%. Moreover, the AC50 under setting [2] is 7080 nM [rising, full curve] and the concentration at half-maximal activity (AC50) under setting [3] is 7940 nM [rising, partial curve].
With `COCCNc1nc(-c2ccoc2)nc2ccccc12`, the max response stood at 26.4% under setting [1] and 35.5% under setting [4]. Further, the AC50 under setting [2] was 794 nM [rising, full curve, poor fit] and the AC50 under setting [3] was 708 nM [rising, full curve].
Turning to `COc1ccccc1CNc1cc(-c2cccnc2)ncn1`, the max response is, setting by setting: under setting [1], 23%; under setting [4], 25.7%. The AC50 under setting [2] was 14.1 nM [rising, full curve, poor fit] and the AC50 under setting [3] is 10 nM [rising, full curve, poor fit].
As for `CCNc1ncc2nc(-c3cn(C)c4ccccc34)c(=O)n(Cc3cccs3)c2n1`, the max response under setting [1] stood at 16.4% and the max response under setting [4] stood at 10.6%. The AC50 was 562 nM [rising, full curve, poor fit] under setting [2] and 708 nM [rising, full curve] under setting [3].
Turning to `CC1=C(C(=O)O)N2C(=O)[C@@H](NC(=O)C(N)C3=CCC=CC3)[C@H]2SC1` (stereo partly specified), the max response under setting [1] was -23.3% and the max response under setting [4] was -23.5%. In addition, the AC50 runs as follows: under setting [2], 158 nM [falling, full curve, poor fit]; under setting [3], 178 nM [falling, full curve, poor fit].
For `CSC(=N)N`, the max response under setting [1] is -6.77% and the max response under setting [4] was -11.1%. Also, the AC50 was 1260 nM [rising, full curve, poor fit] under setting [2] and 1260 nM [rising, full curve, poor fit] under setting [3].
`COc1ccc(Oc2ncc3nc(C)c(=O)n(Cc4cccs4)c3n2)cc1`: the max response turned out to be 3.32% under setting [1] and 8.39% under setting [4]. For the same compound, the AC50 was 1410 nM [rising, partial curve] under setting [2] and 891 nM [rising, partial curve] under setting [3].
Consider `O=c1c(-c2cc(F)cc(F)c2)nc2cnc(N3CCOCC3)nc2n1Cc1ccc(F)cc1`, for which the max response under setting [1] turned out to be 35.4% and the max response under setting [4] stood at 41.7%. Besides, the AC50 reads like this: under setting [2], 5010 nM [rising, partial curve]; under setting [3], 4470 nM [rising, partial curve, poor fit].
For the compound `COc1ccccc1CCn1c(=O)c(-c2ccccc2)nc2cncnc21`, the max response reads like this: under setting [1], 12.3%; under setting [4], 24.5%. Moreover, the AC50 is 1410 nM [rising, partial curve] under setting [2] and 39.8 nM [rising, full curve, poor fit] under setting [3].
As to `O=C(O)c1ccc2c3c1cccc3c(=O)n1c3ccccc3nc21`, the max response turned out to be 58% under setting [1] and 77% under setting [4]. The AC50 under setting [2] is 3550 nM [rising, full curve, poor fit] and the AC50 under setting [3] is 3980 nM [rising, partial curve, poor fit].
On to `COc1ccc2[nH]cc(CCNc3cc(-c4ccc5c(c4)OCO5)ncn3)c2c1`, for which the max response turned out to be 4.58% under setting [1] and 7.75% under setting [4]. Further, the half-maximal activity concentration (AC50) is, setting by setting: under setting [2], 12.6 nM [rising, full curve, poor fit]; under setting [3], 15.8 nM [rising, full curve, poor fit].
Turning to `COc1cc2c(cc1OC)C(c1ccc(N)cc1)=NNC(=O)C2`, the max response under setting [1] was 107% and the max response under setting [4] was found to be 144%. The AC50 is 8910 nM [rising, partial curve, poor fit] under setting [2] and 11200 nM [rising, partial curve, poor fit] under setting [3].
`O=c1c(-c2cc(F)cc(F)c2)nc2cnc(N3CCOCC3)nc2n1CCc1ccccc1`: the max response reads like this: under setting [1], 30%; under setting [4], 40%. Also, the AC50 is, setting by setting: under setting [2], 2000 nM [rising, full curve]; under setting [3], 1780 nM [rising, full curve].
In the case of `CN(C)C(=O)c1ccc(-c2cncnc2Nc2ccc(F)cc2)cc1`, the max response runs as follows: under setting [1], 32.1%; under setting [4], 40.9%. In addition, the AC50 was 2820 nM [rising, full curve] under setting [2] and 2820 nM [rising, full curve] under setting [3].
Regarding `N#Cc1cccc(-c2nc(NCCN3CCOCC3)c3ccccc3n2)c1`, the max response under setting [1] turned out to be 9.46% and the max response under setting [4] worked out at 8.81%. The AC50 is 891 nM [rising, full curve] under setting [2] and 708 nM [rising, full curve] under setting [3].
In the case of `O=c1c(CCc2ccccc2)nc2cnc(Oc3cccc(Cl)c3)nc2n1C[C@H]1CCCO1`, the max response came to 27.4% under setting [1] and 18.1% under setting [4]. The AC50 is, setting by setting: under setting [2], 1410 nM [rising, partial curve, poor fit]; under setting [3], 1120 nM [rising, partial curve, poor fit].
Consider `Cc1sc(N)c(C(=O)c2cccc(C(F)(F)F)c2)c1C`, for which the max response amounted to 94.7% under setting [1] and 112% under setting [4]. Besides, the AC50 is 15800 nM [rising, partial curve] under setting [2] and 15800 nM [rising, partial curve] under setting [3].
`CC(N)(Cc1ccc(O)cc1)C(=O)O` (stereo unspecified): the max response was -44.8% under setting [1] and -49% under setting [4]. Moreover, the AC50 under setting [2] is 7940 nM [falling, full curve, poor fit] and the AC50 under setting [3] was 7940 nM [falling, full curve, poor fit].
On to `COc1ccc(-c2nc3cnc(OC)nc3n(C)c2=O)cc1`, for which the max response was 30% under setting [1] and 39.4% under setting [4]. In addition, the AC50 is 3160 nM [rising, full curve, poor fit] under setting [2] and 3160 nM [rising, full curve] under setting [3].
As to `COc1cccc(-c2nc(NCc3cccnc3)c3ccccc3n2)c1`, the max response under setting [1] stood at 35.3% and the max response under setting [4] was found to be 42.2%. For the same compound, the AC50 is 1260 nM [rising, full curve, poor fit] under setting [2] and 1120 nM [rising, full curve] under setting [3].
Take `O=c1c(-c2ccccc2)nc2cnc(Oc3ccccc3)nc2n1C1CC1`: the max response is, setting by setting: under setting [1], 40.1%; under setting [4], 23.9%. In addition, the AC50 was 7940 nM [rising, partial curve] under setting [2] and 1410 nM [rising, full curve, poor fit] under setting [3].
`COc1ccc(C(=O)N2CCC3(CC2)CN(c2ccccc2)C3)cc1`: the max response under setting [1] amounted to 31.8% and the max response under setting [4] amounted to 40.4%. In addition, the AC50 is 5.62 nM [rising, full curve, poor fit] under setting [2] and 1120 nM [rising, partial curve, poor fit] under setting [3].
As for `Cc1ccc2c(c1)C(=O)[C@@]1(O)CCN(c3ccccc3)C1=N2`, the max response was 79.5% under setting [1] and 78% under setting [4]. The AC50 under setting [2] is 14100 nM [rising, partial curve, poor fit] and the AC50 under setting [3] is 12600 nM [rising, partial curve, poor fit].
